Measured values as given in PubChem BioAssay AID686979 (National Center for Advancing Translational Sciences (NCATS), 2013).
The whole screen tested about 420,000 compounds, of which about 50,000 (12%) were called active. The inconclusive results got no clear call from the source; some entries with a clear call stand among them for comparison. Calls follow the shape of the dose curve; as a rule, active = well fitted inhibition curve with a large enough effect; inconclusive = small, poorly fitted or top-dose-only effect; inactive = flat fitted curve, though single readings scatter. No potency is given beside an inconclusive call; the fits are too rough.

Experiment: qHTS for Inhibitors of human tyrosyl-DNA phosphodiesterase 1 (TDP1): qHTS in cells in presence of CPT; also: nearly all actives have a fitted effect of over 55% in size
Conditions: chicken DT40 Tdp1-/-;hTDP1 cells + 20 nM CPT, ATP luminescence, 48 h; activity change, negative = growth inhibition: at 46.2 µM (top of the series) unless noted
Summary of the method: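 Chicken DT40 Tdp1-/- cells stably complemented with human TDP1 were seeded at 400 cells/well in medium containing 20 nM camptothecin, exposed to pin-transferred compounds, and grown at 37 °C for at least 48 hr. Viability was read as ATP luminescence.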
% is scaled to controls: 0 for no effect and ±100 for the full control effect; potency is read from the fitted curve at half-maximal effect; tags tell the direction and shape of the fitted curve.

SMILES | Potency | activity change, negative = growth inhibition
CC(C)(C)Cc1c(-c2ccccc2)nc2ccc(Br)cn12 | inconclusive [inhibitor, single point] | 
CCOC(=O)C1(CCOc2ccccc2)CCN(Cc2ccc(OCCO)cc2)CC1 | inconclusive [inhibitor, single point] | 
CC(=O)CC1OC(=O)C(Br)=C1NCc1ccccc1 (stereo not given) | active: 0.92 µM | 
CC1CCC2(CC1)N=C(c1ccccc1)C(=O)N2CC(=O)Nc1ccc(F)c(Cl)c1 (stereo not given) | inconclusive [inhibitor, single point] | 
CCOC(=O)c1cccc(NS(=O)(=O)c2cc3[nH]c(=O)c(=O)[nH]c3cc2C)c1 | inactive | 
CC(C)(C)C(=O)NN=C1CCC(c2ccccc2)CC1 (stereo not given) | inactive | 
c1ccc2c(-c3nn4nnnc4c4ccccc34)cccc2c1 |  | inconclusive: -31.6% [inhibitor]
CCN1C(=O)[C@@H]2[C@@H](c3ccc(-c4ccc(F)cc4)cc3)N3CCC[C@@]3(C(=O)OC)[C@@H]2C1=O | inconclusive [inhibitor, single point] | 
O=C(CN1CCN(c2ccccc2)CC1)Nc1ccccc1Cl |  | inconclusive: -32.2% [inhibitor]
O=C(c1ccc(F)cc1)N1CCCC(C(=O)N2CCc3ccccc3C2)C1 (stereo not given) | inconclusive [inhibitor, single point] | 
Cc1ccc(-c2noc(CCC(=O)NCCCN3CCN(c4ccc(F)cc4)CC3)n2)cc1 | active: 6.51 µM | 
Cc1onc(-c2c(Cl)cccc2Cl)c1-c1nc2cc(Cl)ccc2c(=O)o1 | inactive | 
CCc1ccc(NC(=O)C2=CC(c3ccc4c(c3)OCO4)=NS(=O)(=O)N2C)cc1 | inconclusive [inhibitor, single point] | 
CC1=Nn2c(nnc2-c2ccccc2Cl)SC1 | inactive | 
Cc1ccc(S(=O)(=O)NC(C)(C)CSc2nnc(Nc3ccccc3)s2)cc1 | active: 23.1 µM | 
O=[N+]([O-])c1ccccc1S(=O)(=O)N1CCN(c2nc(-c3cccs3)nc3ccccc23)CC1 | inconclusive [inhibitor, partial curve] | 
N#CC1=C(N)C(C#N)(C#N)C(c2cccnc2)C2COCC=C12 (stereo not given) | inactive | 
COc1ccc(S(=O)(=O)N2CCCC(C(=O)Nc3cccnc3)C2)cc1Cl (stereo not given) | active: 16.4 µM | 
COc1cccc(NC(=O)CCNS(=O)(=O)c2cccc3nsnc23)c1 | inactive | 
COc1ccc(NC(=O)Nc2c[nH]c(=O)[nH]c2=O)c(OC)c1 | inactive | 
Cc1ccc(C(C)NC(=O)Cc2cccs2)c(C)c1 (stereo not given) | inconclusive [inhibitor, full curve] | 
CCOc1ccc(-c2nc(SCC(=O)NCCCOC)c(-c3ccccc3)[nH]2)cc1 | inconclusive [inhibitor, single point] | 
NC(=O)c1c(NC(=O)c2ccccc2)sc2c1CCCC2 | inactive | 
Cc1cc(NC(=O)COC(=O)c2ccc(S(=O)(=O)N3CCCc4ccccc43)cc2)no1 | active: 3.66 µM | 
COc1ccccc1CNC(=O)CSc1ncc2c(n1)-c1cc(Cl)ccc1N(Cc1ccccc1)S2(=O)=O | inconclusive [inhibitor, single point] | 

SMILES | Potency | activity change, negative = growth inhibition
Cc1c(C(=O)N(Cc2ccc(Cl)cc2)CC2CCCO2)oc2ccc(F)cc12 (stereo not given) | inconclusive [inhibitor, single point] | 
CC(C)Cc1nnc(NC(=O)CN2C(=O)NC3(CC(C)CC(C)(C)C3)C2=O)s1 (stereo not given) | inconclusive [inhibitor, single point] | 
COc1ccccc1NC(=O)CNC(=O)CC12CC3CC(CC(C3)C1)C2 | active: 1.64 µM | 
COc1ccc(-c2sc3ccccc3c2/C=C/c2ccncc2)cc1 | inconclusive [inhibitor, single point] | 
Cc1cc(C)n(CC(=O)N/N=C/c2cccc([N+](=O)[O-])c2)n1 | inactive | 
CC1(C(=O)Nc2cccc(Oc3ccccc3)c2)CCN1Cc1ccccc1Cl (stereo not given) | inconclusive [inhibitor, single point] | 
c1cc2c(cc1C1CCCCC1)c1c3n2CCN=C3CCC1 | inconclusive [inhibitor, single point] | 
Cc1cc(C)c(C(=O)C(C)OC(=O)c2ccc(Cl)nc2)cc1C (stereo not given) | inconclusive [inhibitor, single point] | 
CCC(=O)N1CCN(c2ccc(Cl)cc2NC(=O)Cc2ccc(Cl)cc2)CC1 | inconclusive [inhibitor, single point] | 
O=[N+]([O-])c1cccc(-c2nnc(-c3ccccc3)o2)c1 | inactive | 
CSc1ccc(CC2C(=O)Nc3ccccc32)cc1 (stereo not given) | inconclusive [inhibitor, single point] | 
CC(C)(C)c1cc(NC(=O)c2cccnc2)no1 | inactive | 
CCOc1cc(NC(=O)c2ccco2)c(OCC)cc1NC(=O)COc1ccccc1 | active: 4.11 µM | 
COc1ccccc1NS(=O)(=O)c1cc(NC(=O)C2CCCC2)ccc1N1CCOCC1 | active: 14.6 µM | 
Brc1cnc2ccccc2c1N1CCCCC1 | inconclusive [inhibitor, partial curve, poor fit] | 
COc1ccccc1-c1c(C)nn2c(N3CCN(c4ccccc4OC)CC3)cc(C)nc12 | inconclusive [inhibitor, single point] | 
Cc1ccc(C)c(NC(=O)COC(=O)c2ccc3c(c2)OCCO3)c1 | inactive | 
CCN(CC(=O)Nc1ccc(NC(C)=O)cc1)C(=O)c1cc(-c2ccccc2Cl)nc2ccccc12 | inconclusive [inhibitor, single point] | 
COc1ccccc1Oc1c(NS(=O)(=O)c2ccc(C(C)(C)C)cc2)nc(-c2ncccn2)nc1OCCO |  | inconclusive: -31.3% [inhibitor]
CCOC(=O)CC(=O)CSc1ncnc2c1nnn2-c1ccccc1 | inactive | 
O=C(N/N=C\c1cc(Cl)ccc1O)c1ccc(S(=O)(=O)N2CCCCC2)cc1 | active: 0.651 µM | 
O=C(Cc1ccc(S(=O)(=O)N2CCOCC2)s1)Nc1ccc(Br)c(C(F)(F)F)c1 | active: 14.6 µM | 
CCCCN=C1NC(=O)C(CC(=O)NCCc2ccc(OC)cc2)S1 (stereo not given) | inactive | 
CCOCCCNC(=S)N1CCCN(c2nc3cc(C)ccc3cc2C#N)CC1 | inactive | 
O=C(NCc1cccnc1)NC1(C(F)(F)F)Oc2ccc(Cl)cc2O1 (stereo not given) | active: 10.3 µM | 

SMILES | Potency | activity change, negative = growth inhibition
O=C(c1cc2cc(Br)ccc2s1)N1CCOCC1 | inactive | 
CC(C)NC(=O)Nc1ccc2c(c1)C(=O)N([C@H](C)CO)C[C@H](C)[C@@H](CN(C)S(=O)(=O)c1ccccc1)O2 | inactive | 
C/C(=N/NC(=O)CSc1nc2ccccc2n1C)c1ccco1 | inactive | 
O=C(CS(=O)(=O)c1cccc2nsnc12)Nc1cc(F)ccc1F | inactive | 
CCN(CC)c1ccc(-c2n[nH]c(=S)n2-c2ccccc2)cc1 | active: 18.4 µM | 
O=C(Cc1ccccc1F)N1CCC(c2nc3c(nnn3Cc3ccc(F)cc3)c(=O)[nH]2)CC1 | inconclusive [inhibitor, single point] | 
CC1(C2CC2)NC(=O)N(CC(=O)NCC(=O)Nc2ccc(F)c(F)c2F)C1=O (stereo not given) | inactive | 
OCCNc1ncnc2c1ncn2[C@H]1CN(Cc2ccco2)C[C@@H](CO)O1 | inactive | 
CC(C)(C)Cc1c(-c2cccc(Cl)c2)nc2ccc(Br)cn12 | inconclusive [inhibitor, single point] | 
Cc1cc(C(=O)Nc2ccc3ccccc3c2)c(C)o1 | inactive | 
COCCNC(=O)c1cc(-c2ccccc2C)nn1CC1CC(c2cccnc2)=NO1 (stereo not given) | inconclusive [inhibitor, single point] | 
COc1cccc(C2C(C(=O)Nc3ccccc3)=C(C)Nc3nnnn32)c1OC (stereo not given) | inconclusive [inhibitor, single point] | 
Cc1ccc(NC(=O)CCN2C(=O)NC3(CCCC3)C2=O)c(C)c1 | inactive | 
Cc1cn(-c2ccccc2)c(C)c1/C=N\Nc1nc(N2CCOCC2)nc(N2CCOCC2)n1 | inconclusive [inhibitor, single point] | 
CCCC(C(=O)Nc1ccc(S(=O)(=O)N2CCCC2)cc1)c1ccccc1 (stereo not given) | active: 20.6 µM | 
N[C@H](C(=O)O)[C@@H](O)c1ccc(O)c(O)c1 | inconclusive [inhibitor, single point] | 
COc1ccc(OC)c2c1sc(=NC(=O)C1COc3ccccc3O1)n2C (stereo not given) | inconclusive [inhibitor, single point] | 
COC(=O)c1sccc1NC(=O)CC1C(=O)NCCN1C(=O)Nc1ccc(C(F)(F)F)cc1 (stereo not given) | inconclusive [inhibitor, single point] | 
CCc1ccccc1NC(=O)C1COc2ccccc2C1 (stereo not given) | inactive | 
Cn1cnc(S(=O)(=O)N2CCC(C(=O)N3CCN(c4ccc(Cl)cc4)CC3)CC2)c1 | inconclusive [inhibitor, single point] | 
OCC1(Cc2ccccc2)CCN(CCCC2CCCC2)CC1 | inconclusive [inhibitor, single point] | 
COc1ccc(OC)c(Nc2cc(C)nc3ccccc23)c1 | active: 18.4 µM | 
O=C(COC(=O)/C=C/c1ccc(Cl)cc1)Nc1cccc(S(=O)(=O)NC2=NCCCCC2)c1 | inconclusive [inhibitor, single point] | 
COc1ccc(-c2csc(NC(CO)c3nc4ccccc4n3Cc3ccc(C)cc3)n2)cc1 (stereo not given) | active: 25.9 µM | 
O=[N+]([O-])c1ccc(S(=O)(=O)NCCc2cn3ccccc3n2)cc1 | inactive | 
